According to patent US20250114416A1, “ANTIVIRAL C[…] EXTRACT AND STEROID COMPOUND AS ACTIVE INGREDIENTS” (priority 2022, published 2025):

Tested on: SARS-CoV-2 virus
Settings: examples using ginseng (Table 1), non-treated control = 100

Compound: C[C@@H]1C[C@H]2[C@@H]3CCC4=CC(=O)C=C[C@]4(C)[C@@]3(F)[C@@H](O)C[C@]2(C)[C@@]1(O)C(=O)CO [Comparative Example 4, Dexamethasone]
- Relative virus titer SARS-CoV-2 virus: 101 ± 1.9

Compound: C[C@]12CCC(=O)C=C1CC[C@@H]1[C@@H]2[C@@H](O)C[C@@]2(C)[C@H]1CC[C@]2(O)C(=O)CO [Comparative Example 5, Hydrocortisone]
- Relative virus titer SARS-CoV-2 virus: 102 ± 1.9

Compound: C[C@]12C=CC(=O)C=C1CC[C@@H]1[C@@H]2[C@@H](O)C[C@@]2(C)[C@H]1CC[C@]2(O)C(=O)CO [Comparative Example 6, Prednisolone]
- Relative virus titer SARS-CoV-2 virus: 101 ± 1.9

Compound: C[C@]12C=CC(=O)C=C1CC[C@H]1[C@@H]3C[C@@H](O)[C@](O)(C(=O)CO)[C@@]3(C)C[C@H](O)[C@@]12F [Comparative Example 7, Triamcinolone]
- Relative virus titer SARS-CoV-2 virus: 101 ± 1.9
